# Measured values reported in US20240228567A1 (Zymeworks, published 2024).
# B1: Masked IL12 HetFc fusion protein variant 37492 (p40 W15K) (Fc fusion)
# chain 1: [here human IgG1 Fc with changes without letters]SADGGIWELKKDVYVVELDKYPDAPGEMVVLTCDTPEEDGITWTLDQSSEVLGSGKTLTIQVKEFGDAGQYTCHKGGEVLSHSLLLLHKKEDGIWSTDILKDQKEPKNKTFLRCEAKNYSGRFTCWWLTTISTDLTFSVKSSRGSSDPQGVTCGAATLSAERVRGDNKEYEYSVECQEDSACPAAEESLPIEVMVDAVHKLKYENYTSSFFIRDIIKPDPPKNLQLKPLKNSRQVEVSWEYPDTWSTPHSYFSLTFCVQVQGKSKREKKDRVFTDKTSATVICRKNASISVRAQDRYYSSSWSEWASVPCSGGGGSGGGGSGGGGSNLPVATPDPGMFPCLHHSQNLLRAVSNMLQKARQTLEFYPCTSEEIDHEDITKDKTSTVEACLPLELTKNESCLNSRETSFITNGSCLASRKTSFMMALCLSSIYEDLKMYQVEFKTMNAKLLMDPKRQIFLDQNMLAVIDELMQALNFNSETVPQKSSLEEPDFYKTKIKLCILLHAFRIRAVTIDRVMSYLNAS
# chain 2: EPKSSDKTHTCPPCPAPEAAGGPSVFLFPPKPKDTLMISRTPEVTCVVVSVSHEDPEVKFNWYVDGVEVHNAKTKPREEQYNSTYRVVSVLTVLHQDWLNGKEYKCKVSNKALPAPIEKTISKAKGQPREPQVYVLPPSRDELTKNQVSLLCLVKGFYPSDIAVEWESNGQPENNYLTWPPVLDSDGSFFLYSKLTVDKSRWQQGNVFSCSVMHEALHNHYTQKSLSLSPGGGGGSGGGGSGGGSGGGSGGGGSGGGGSQVQLVESGGGVVQPGRSLRLSCAASGFTFSSYGMHWVRQAPGKGLEWVAFIRYDGSNKYYADSVKGRFTISRDNSKNTLYLQMNSLRAEDTAVYYCKTHGSHDNWGQGTMVTVSSGGSGGGSGGGSGGGSGGGSGQSVLTQPPSVSGAPGQRVTISCSGSRSNIGSNTVKWYQQLPGTAPKLLIYYNDQRPSGVPDRFSGSKSGTSASLAITGLQAEDEADYYCQSYDRYTHPALLFGTGTKVTVL
# B2: Masked IL12 HetFc fusion protein variant 37478 (p40 E59R) (Fc fusion)
# chain 1: [here human IgG1 Fc with changes without letters]SADGGIWELKKDVYVVELDWYPDAPGEMVVLTCDTPEEDGITWTLDQSSEVLGSGKTLTIQVKRFGDAGQYTCHKGGEVLSHSLLLLHKKEDGIWSTDILKDQKEPKNKTFLRCEAKNYSGRFTCWWLTTISTDLTFSVKSSRGSSDPQGVTCGAATLSAERVRGDNKEYEYSVECQEDSACPAAEESLPIEVMVDAVHKLKYENYTSSFFIRDIIKPDPPKNLQLKPLKNSRQVEVSWEYPDTWSTPHSYFSLTFCVQVQGKSKREKKDRVFTDKTSATVICRKNASISVRAQDRYYSSSWSEWASVPCSGGGGSGGGGSGGGGSNLPVATPDPGMFPCLHHSQNLLRAVSNMLQKARQTLEFYPCTSEEIDHEDITKDKTSTVEACLPLELTKNESCLNSRETSFITNGSCLASRKTSFMMALCLSSIYEDLKMYQVEFKTMNAKLLMDPKRQIFLDQNMLAVIDELMQALNFNSETVPQKSSLEEPDFYKTKIKLCILLHAFRIRAVTIDRVMSYLNAS
# chain 2: B1 chain 2
# B3: Masked IL12 HetFc fusion protein variant 37481 (p40 E59S) (Fc fusion)
# chain 1: [here human IgG1 Fc with changes without letters]SADGGIWELKKDVYVVELDWYPDAPGEMVVLTCDTPEEDGITWTLDQSSEVLGSGKTLTIQVKSFGDAGQYTCHKGGEVLSHSLLLLHKKEDGIWSTDILKDQKEPKNKTFLRCEAKNYSGRFTCWWLTTISTDLTFSVKSSRGSSDPQGVTCGAATLSAERVRGDNKEYEYSVECQEDSACPAAEESLPIEVMVDAVHKLKYENYTSSFFIRDIIKPDPPKNLQLKPLKNSRQVEVSWEYPDTWSTPHSYFSLTFCVQVQGKSKREKKDRVFTDKTSATVICRKNASISVRAQDRYYSSSWSEWASVPCSGGGGSGGGGSGGGGSNLPVATPDPGMFPCLHHSQNLLRAVSNMLQKARQTLEFYPCTSEEIDHEDITKDKTSTVEACLPLELTKNESCLNSRETSFITNGSCLASRKTSFMMALCLSSIYEDLKMYQVEFKTMNAKLLMDPKRQIFLDQNMLAVIDELMQALNFNSETVPQKSSLEEPDFYKTKIKLCILLHAFRIRAVTIDRVMSYLNAS
# chain 2: B1 chain 2
# B4: Masked IL12 HetFc fusion protein variant 37491 (p40 W15H_K84L) (Fc fusion)
# chain 1: [here human IgG1 Fc with changes without letters]SADGGIWELKKDVYVVELDHYPDAPGEMVVLTCDTPEEDGITWTLDQSSEVLGSGKTLTIQVKEFGDAGQYTCHKGGEVLSHSLLLLHLKEDGIWSTDILKDQKEPKNKTFLRCEAKNYSGRFTCWWLTTISTDLTFSVKSSRGSSDPQGVTCGAATLSAERVRGDNKEYEYSVECQEDSACPAAEESLPIEVMVDAVHKLKYENYTSSFFIRDIIKPDPPKNLQLKPLKNSRQVEVSWEYPDTWSTPHSYFSLTFCVQVQGKSKREKKDRVFTDKTSATVICRKNASISVRAQDRYYSSSWSEWASVPCSGGGGSGGGGSGGGGSNLPVATPDPGMFPCLHHSQNLLRAVSNMLQKARQTLEFYPCTSEEIDHEDITKDKTSTVEACLPLELTKNESCLNSRETSFITNGSCLASRKTSFMMALCLSSIYEDLKMYQVEFKTMNAKLLMDPKRQIFLDQNMLAVIDELMQALNFNSETVPQKSSLEEPDFYKTKIKLCILLHAFRIRAVTIDRVMSYLNAS
# chain 2: B1 chain 2
# B5: Masked IL12 HetFc fusion protein variant 37480 (p40 D161R) (Fc fusion)
# chain 1: [here human IgG1 Fc with changes without letters]SADGGIWELKKDVYVVELDWYPDAPGEMVVLTCDTPEEDGITWTLDQSSEVLGSGKTLTIQVKEFGDAGQYTCHKGGEVLSHSLLLLHKKEDGIWSTDILKDQKEPKNKTFLRCEAKNYSGRFTCWWLTTISTDLTFSVKSSRGSSDPQGVTCGAATLSAERVRGRNKEYEYSVECQEDSACPAAEESLPIEVMVDAVHKLKYENYTSSFFIRDIIKPDPPKNLQLKPLKNSRQVEVSWEYPDTWSTPHSYFSLTFCVQVQGKSKREKKDRVFTDKTSATVICRKNASISVRAQDRYYSSSWSEWASVPCSGGGGSGGGGSGGGGSNLPVATPDPGMFPCLHHSQNLLRAVSNMLQKARQTLEFYPCTSEEIDHEDITKDKTSTVEACLPLELTKNESCLNSRETSFITNGSCLASRKTSFMMALCLSSIYEDLKMYQVEFKTMNAKLLMDPKRQIFLDQNMLAVIDELMQALNFNSETVPQKSSLEEPDFYKTKIKLCILLHAFRIRAVTIDRVMSYLNAS
# chain 2: B1 chain 2
# B6: Masked IL12 HetFc fusion protein variant 37470 (p40 K84W_K197W) (Fc fusion)
# chain 1: [here human IgG1 Fc with changes without letters]SADGGIWELKKDVYVVELDWYPDAPGEMVVLTCDTPEEDGITWTLDQSSEVLGSGKTLTIQVKEFGDAGQYTCHKGGEVLSHSLLLLHWKEDGIWSTDILKDQKEPKNKTFLRCEAKNYSGRFTCWWLTTISTDLTFSVKSSRGSSDPQGVTCGAATLSAERVRGDNKEYEYSVECQEDSACPAAEESLPIEVMVDAVHKLWYENYTSSFFIRDIIKPDPPKNLQLKPLKNSRQVEVSWEYPDTWSTPHSYFSLTFCVQVQGKSKREKKDRVFTDKTSATVICRKNASISVRAQDRYYSSSWSEWASVPCSGGGGSGGGGSGGGGSNLPVATPDPGMFPCLHHSQNLLRAVSNMLQKARQTLEFYPCTSEEIDHEDITKDKTSTVEACLPLELTKNESCLNSRETSFITNGSCLASRKTSFMMALCLSSIYEDLKMYQVEFKTMNAKLLMDPKRQIFLDQNMLAVIDELMQALNFNSETVPQKSSLEEPDFYKTKIKLCILLHAFRIRAVTIDRVMSYLNAS
# chain 2: B1 chain 2
# B7: Masked IL12 HetFc fusion protein variant 37479 (p40 K197T) (Fc fusion)
# chain 1: [here human IgG1 Fc with changes without letters]SADGGIWELKKDVYVVELDWYPDAPGEMVVLTCDTPEEDGITWTLDQSSEVLGSGKTLTIQVKEFGDAGQYTCHKGGEVLSHSLLLLHKKEDGIWSTDILKDQKEPKNKTFLRCEAKNYSGRFTCWWLTTISTDLTFSVKSSRGSSDPQGVTCGAATLSAERVRGDNKEYEYSVECQEDSACPAAEESLPIEVMVDAVHKLTYENYTSSFFIRDIIKPDPPKNLQLKPLKNSRQVEVSWEYPDTWSTPHSYFSLTFCVQVQGKSKREKKDRVFTDKTSATVICRKNASISVRAQDRYYSSSWSEWASVPCSGGGGSGGGGSGGGGSNLPVATPDPGMFPCLHHSQNLLRAVSNMLQKARQTLEFYPCTSEEIDHEDITKDKTSTVEACLPLELTKNESCLNSRETSFITNGSCLASRKTSFMMALCLSSIYEDLKMYQVEFKTMNAKLLMDPKRQIFLDQNMLAVIDELMQALNFNSETVPQKSSLEEPDFYKTKIKLCILLHAFRIRAVTIDRVMSYLNAS
# chain 2: B1 chain 2
# B8: Masked IL12 HetFc fusion protein variant 37476 (p40 K84W_D161R) (Fc fusion)
# chain 1: [here human IgG1 Fc with changes without letters]SADGGIWELKKDVYVVELDWYPDAPGEMVVLTCDTPEEDGITWTLDQSSEVLGSGKTLTIQVKEFGDAGQYTCHKGGEVLSHSLLLLHWKEDGIWSTDILKDQKEPKNKTFLRCEAKNYSGRFTCWWLTTISTDLTFSVKSSRGSSDPQGVTCGAATLSAERVRGRNKEYEYSVECQEDSACPAAEESLPIEVMVDAVHKLKYENYTSSFFIRDIIKPDPPKNLQLKPLKNSRQVEVSWEYPDTWSTPHSYFSLTFCVQVQGKSKREKKDRVFTDKTSATVICRKNASISVRAQDRYYSSSWSEWASVPCSGGGGSGGGGSGGGGSNLPVATPDPGMFPCLHHSQNLLRAVSNMLQKARQTLEFYPCTSEEIDHEDITKDKTSTVEACLPLELTKNESCLNSRETSFITNGSCLASRKTSFMMALCLSSIYEDLKMYQVEFKTMNAKLLMDPKRQIFLDQNMLAVIDELMQALNFNSETVPQKSSLEEPDFYKTKIKLCILLHAFRIRAVTIDRVMSYLNAS
# chain 2: B1 chain 2
# B9: Masked IL12 HetFc fusion protein variant 37475 (p40 E59D_D93H) (Fc fusion)
# chain 1: [here human IgG1 Fc with changes without letters]SADGGIWELKKDVYVVELDWYPDAPGEMVVLTCDTPEEDGITWTLDQSSEVLGSGKTLTIQVKDFGDAGQYTCHKGGEVLSHSLLLLHKKEDGIWSTHILKDQKEPKNKTFLRCEAKNYSGRFTCWWLTTISTDLTFSVKSSRGSSDPQGVTCGAATLSAERVRGDNKEYEYSVECQEDSACPAAEESLPIEVMVDAVHKLKYENYTSSFFIRDIIKPDPPKNLQLKPLKNSRQVEVSWEYPDTWSTPHSYFSLTFCVQVQGKSKREKKDRVFTDKTSATVICRKNASISVRAQDRYYSSSWSEWASVPCSGGGGSGGGGSGGGGSNLPVATPDPGMFPCLHHSQNLLRAVSNMLQKARQTLEFYPCTSEEIDHEDITKDKTSTVEACLPLELTKNESCLNSRETSFITNGSCLASRKTSFMMALCLSSIYEDLKMYQVEFKTMNAKLLMDPKRQIFLDQNMLAVIDELMQALNFNSETVPQKSSLEEPDFYKTKIKLCILLHAFRIRAVTIDRVMSYLNAS
# chain 2: B1 chain 2
# Biological target: IL12 receptor on HEK reporter cells stably transfected with genes for the IL12 receptor (UniProt P42701 24-662; Q99665 24-862)
# Assay: cell-based or functional assay
"EC50, IL12 RGA, repeat 1","EC50, IL12 RGA, repeat 2",Binder
38.7 nM,122 nM,B1
15.1 nM,13.1 nM,B2
53.1 nM,29.2 nM,B3
12.8 nM,12.6 nM,B4
13 nM,12.9 nM,B5
63.2 nM,68.6 nM,B6
16.4 nM,16.4 nM,B7
13.3 nM,13 nM,B8
9.51 nM,6.79 nM,B9
